This is an account of results in publication PMC6919601, “Identification of Plasmodium dipeptidyl aminopeptidase allosteric inhibitors by high throughput screening” (PLoS ONE, 2019).

Structures are written as SMILES. The campaign covered roughly 110,000 compounds. About 230 (0.21%) showed an effect of 50% or more. Some of the results follow.
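Also: 30 min substrate incubation versus DMSO and 10 µM JCP410 controls.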

For the assay, the target named is DPAP1 (Plasmodium falciparum, UniProt Q8IIJ9). Briefly: primary screen, percent inhibition; read by cleavage of a fluorogenic dipeptide substrate; higher = more effect of the substance. Further details: species or system P. falciparum D10 trophozoite lysates; single well.
DPAP1, sequence (Q8IIJ9 whole entry, looked up): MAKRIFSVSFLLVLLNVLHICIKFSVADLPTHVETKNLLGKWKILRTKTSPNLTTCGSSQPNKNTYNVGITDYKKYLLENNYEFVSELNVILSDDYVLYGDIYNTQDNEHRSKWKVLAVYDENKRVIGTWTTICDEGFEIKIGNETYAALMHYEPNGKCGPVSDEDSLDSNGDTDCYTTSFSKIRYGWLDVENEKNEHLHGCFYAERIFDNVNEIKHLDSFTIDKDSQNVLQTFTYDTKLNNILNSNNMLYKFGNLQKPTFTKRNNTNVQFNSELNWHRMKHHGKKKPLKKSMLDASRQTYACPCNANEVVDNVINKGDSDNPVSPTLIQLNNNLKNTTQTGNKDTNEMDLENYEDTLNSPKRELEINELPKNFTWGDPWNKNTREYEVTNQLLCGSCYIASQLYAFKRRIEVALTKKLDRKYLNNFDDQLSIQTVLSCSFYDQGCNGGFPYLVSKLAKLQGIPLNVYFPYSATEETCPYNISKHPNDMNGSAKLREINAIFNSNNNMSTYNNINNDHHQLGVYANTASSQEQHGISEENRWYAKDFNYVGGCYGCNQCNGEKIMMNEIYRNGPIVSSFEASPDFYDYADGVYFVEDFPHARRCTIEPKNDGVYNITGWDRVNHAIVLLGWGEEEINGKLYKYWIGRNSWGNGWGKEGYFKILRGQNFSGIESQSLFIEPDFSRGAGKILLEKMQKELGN
On to `O=S(=O)(NCc1ccc2c(c1)OCO2)c1cccs1`, for which the “% Inhibition @ 10 uM” value is 2.65%.

Regarding `Cc1ccsc1C1C(C#N)=C(N)Oc2[nH]nc(C(C)(C)C)c21` (stereo not drawn), the “% Inhibition @ 10 uM” value was -4.03%.

In the case of `O=C(NC1CCN(Cc2ccccc2)CC1)c1cccs1`, the “% Inhibition @ 10 uM” value is -1.5%. Turning to `CC1=C(C(=O)OCCCc2ccccc2)C(c2cccs2)NC(=O)N1C` (stereo not drawn), the “% Inhibition @ 10 uM” value was 5.55%. On to `COc1ccc(S(=O)(=O)NCC2CCC(C(=O)O)CC2)cc1` (stereo not drawn), for which the “% Inhibition @ 10 uM” value is -0.256%. As for `Cc1ccc(-c2csc(/C(C#N)=C/c3ccc([N+](=O)[O-])cc3)n2)c(C)c1`, the “% Inhibition @ 10 uM” value came out at 0.247%.

Take `O=C(Nc1cccc([N+](=O)[O-])c1)[C@@H]1C2C=CC(C2)[C@@H]1C(=O)O` (stereo partly drawn): the “% Inhibition @ 10 uM” value is -0.999%. In the case of `Cc1ccc(Nc2nc(-c3ccc(S(=O)(=O)N4CCCC4)cc3)cs2)cc1C`, the “% Inhibition @ 10 uM” value was -0.771%. Consider `COc1ccc(NC(=O)CN(C2CCCCC2)S(C)(=O)=O)cc1Cl`, for which the “% Inhibition @ 10 uM” value is listed as 1.17%. As for `COCCCNC(=O)c1cc(-c2ccc(Cl)s2)nc2ccccc12`, the “% Inhibition @ 10 uM” value was found to be 4.32%. Regarding `CC(C)C[C@H](NC(=O)OCc1ccccc1C(F)(F)F)C(=O)NCC#N`, the “% Inhibition @ 10 uM” value is -4.72%. Take `O=C(O)C/N=C1\CC(c2ccccc2)CC(O)=C1C(=O)CCCN1C(=O)c2ccccc2C1=O` (stereo not drawn): the “% Inhibition @ 10 uM” value is -2.19%. As to `CCOc1ccc(NC(=O)c2cc3ccccc3cc2OC)cc1`, the “% Inhibition @ 10 uM” value is given as -1.66%. Regarding `CSc1[nH]c2ccccc2c1CC(=O)N(C)C`, the “% Inhibition @ 10 uM” value is reported as 2.48%. Under `O=C(Nc1ccc(SC(F)(F)F)cc1)Nc1ccc(Cl)c(Cl)c1` stands -6.11%; under `O=C(CSc1cn(CC(=O)N2CCOCC2)c2ccccc12)NCCc1ccccc1`, -0.264%. With `CCCc1nn(-c2ccc(F)cc2)c(O)c1/C=N/Cc1ccccc1Cl`, the “% Inhibition @ 10 uM” value is listed as -6.08%. For `CCCN1CCC(Nc2cc(-c3ccccc3)ccc2OC)CC1`, the “% Inhibition @ 10 uM” value is recorded as -1.82%. Then `CNc1c(Cl)cnn(-c2cccc(C(F)(F)F)c2)c1=O`, with 2.46%. As for `COc1ccc(NC(=O)c2ccc(C)c(Br)c2)cc1`, the “% Inhibition @ 10 uM” value was 2.42%. Regarding `CC(C)C[C@H](NC(=O)c1csc(Nc2ccncc2)n1)C(=O)NCC#N`, the “% Inhibition @ 10 uM” value turned out to be 3.19%. For `CCCCN1C(=O)c2cccc3c(NCCCOC)ccc(c23)C1=O`, the “% Inhibition @ 10 uM” value is on record as -12.8%. In the case of `CCCN1CC=C2C(C1)C(c1cccc(C(F)(F)F)c1)C(C#N)=C(N)C2(C#N)C#N` (stereo not drawn), the “% Inhibition @ 10 uM” value is given as 2.32%. In the case of `COc1cccc(C(=O)N2CCN(Cc3ccc(OC)cc3OC)CC2)c1`, the “% Inhibition @ 10 uM” value is reported as -9.65%. Under `Cn1c2ccccc2c2cnnc(O)c21` stands 1.43%; under `CCc1ccc(/C=C2\SC(N3CCOCC3)=NC2=O)cc1`, 5.05%; under `COCCCn1c(=O)c2sccc2n2c(CCCC(=O)NC3CCCCCC3)nnc12`, 4.98%.

For the compound `O=C(c1ccco1)N1CCN(C(=O)c2ccc(CS(=O)c3cccc(Cl)c3)o2)CC1` (stereo not drawn), the “% Inhibition @ 10 uM” value is given as -5.74%. Take `COC(=O)c1c(NC(=O)/C(C#N)=C/c2ccc(OC)cc2)sc2c1CCC(C)C2` (stereo not drawn): the “% Inhibition @ 10 uM” value is listed as 1.37%. Then `N#Cc1nc(/C=C/c2cccs2)oc1NCc1ccc(F)cc1`, with 4.83%; and `CCOC(=O)NS(=O)(=O)c1cnccc1Nc1cccc(C(F)(F)F)c1`, with -0.115%.

Take `CCOC(=O)c1c(C)[nH]c(C)c1S(=O)(=O)N1CCC(C(=O)NCC2CCCO2)CC1` (stereo not drawn): the “% Inhibition @ 10 uM” value was -3.44%. Turning to `CCCN(CCC)S(=O)(=O)c1ccc(NC(=O)C2CCCO2)cc1` (stereo not drawn), the “% Inhibition @ 10 uM” value stood at 0.408%.

`Cn1c(C(=O)N2CCC(C(=O)NCCN3CCC(Cc4ccccc4)CC3)CC2)cc2sccc21`: the “% Inhibition @ 10 uM” value is listed as 3.4%. With `CCOC(=O)C1=C(C)N=c2s/c(=C\c3cccs3)c(=O)n2C1c1ccc(N(C)C)cc1` (stereo not drawn), the “% Inhibition @ 10 uM” value amounted to 2%. Under `COc1ccc2c(c1)CCC1=C2N=C(S)NC1c1ccc(C)cc1` (stereo not drawn) stands -3.23%; under `O=C(NC(Cc1c[nH]c2ccccc12)C(=O)NCc1ccccc1)c1ccccc1` (stereo not drawn), 1.88%; under `Cc1ccc(C(=O)/C=C/c2cn(CC(O)CN3CCOCC3)c3ccccc23)cc1` (stereo not drawn), -5.36%. Consider `COc1cc(C(=O)NCCC(=O)NCCCN2CCCCC2C)cc(OC)c1OC` (stereo not drawn), for which the “% Inhibition @ 10 uM” value was -0.519%.

As to `COCc1cc(C)nc(SCC(=O)Nc2ccc(F)c(F)c2F)c1C#N`, the “% Inhibition @ 10 uM” value amounted to 3.05%.

Regarding `Cc1cc(N2CCN(C3CCCCC3)CC2)nc2cc(O)ccc12`, the “% Inhibition @ 10 uM” value was -2.88%. As for `CCOc1ccc(-c2nn3c(-c4cc(OC)c(OC)c(OC)c4)nnc3s2)cc1`, the “% Inhibition @ 10 uM” value amounted to 56.2%.

Take `CC(C)C[C@H](NC(=O)OCCOc1ccccc1)C(=O)NCC#N`: the “% Inhibition @ 10 uM” value is recorded as 9.99%.

As to `CCn1c(C)[n+](CC)c2cc(S(=O)(=O)N3CCCCC3)ccc21`, the “% Inhibition @ 10 uM” value is on record as -4.48%.

As for `CCOC(=O)N1CCN(C(=O)CSc2nnc(-c3ccc4c(c3)OCCO4)o2)CC1`, the “% Inhibition @ 10 uM” value was 7.15%. For `COc1ccc(CN(C(=O)COc2ccc(Br)cc2)C2CCS(=O)(=O)C2)cc1` (stereo not drawn), the “% Inhibition @ 10 uM” value came out at 3.87%. As to `CCN(CC)CCN1C(=O)C(O)=C(C(=O)c2cccs2)C1c1ccc(C)o1` (stereo not drawn), the “% Inhibition @ 10 uM” value is listed as -10.8%. Regarding `COc1ccc(C2C3=C(O)CC(C)(C)CC3=NC(C)=C2C(=O)Nc2ccc(F)cc2)c(OC)c1` (stereo not drawn), the “% Inhibition @ 10 uM” value was -4.48%. As for `Cc1cc(C(F)(F)F)n2nc(CNC(=O)c3ccccc3)nc2n1`, the “% Inhibition @ 10 uM” value is -2.17%.

Regarding `COc1ccc(C2C(C(=O)OC(C)C)=C(C)N=c3s/c(=C\c4ccc(C)o4)c(=O)n32)cc1` (stereo not drawn), the “% Inhibition @ 10 uM” value is 3.66%.

For `COc1ccccc1N1CCN(Cc2ccccc2Cl)CC1`, the “% Inhibition @ 10 uM” value is given as 3.16%.

Consider `Cc1ccccc1CN1CCN(CC(=O)NCc2ccc(F)cc2)C1=O`, for which the “% Inhibition @ 10 uM” value is listed as -0.971%. Under `Cc1ccc(-c2nc(CS(=O)(=O)CC(=O)NC3CCCC(C)C3C)c(C)o2)cc1` (stereo not drawn) stands -0.138%; under `CCOC(=O)N1CCN(C(=O)c2cc3c(Cl)nc4ccccc4c3s2)CC1`, -2.45%; under `COc1ccc(C2C(C#N)=C(N)N(c3nc[nH]n3)C3=C2C(=O)CC(C)(C)C3)c(OC)c1` (stereo not drawn), -0.99%. For the compound `Cc1ccc(C(=O)NCc2ccc(S(N)(=O)=O)cc2)cc1C`, the “% Inhibition @ 10 uM” value is -5.58%. Consider `CCOC(=O)c1c(C)[nH]c(C)c1S(=O)(=O)N(C)CC(=O)NCc1cccs1`, for which the “% Inhibition @ 10 uM” value came out at 2.24%. As for `CN1CCCC/C1=N\CCn1cnc2c1c(=O)n(C)c(=O)n2C`, the “% Inhibition @ 10 uM” value was -10.2%. On to `CCOc1ccc(C(=O)N2CCN(c3ccc(F)cc3)CC2)cc1`, for which the “% Inhibition @ 10 uM” value is given as 1.92%. On to `O=C(O)CCC(=O)Nc1cccc2c(NC(=O)CCC(=O)O)cccc12`, for which the “% Inhibition @ 10 uM” value is recorded as -4.61%.
